PubChem BioAssay AID686979 (National Center for Advancing Translational Sciences (NCATS), 2013)
The whole screen tested about 420,000 compounds, of which about 50,000 (12%) were called active. Inconclusive results, whose numbers are uncertain, are shown with a selection of clear calls. Calls come from the whole dose curve; as a rule, active = well fitted inhibition curve with a large enough effect; inconclusive = small, poorly fitted or top-dose-only effect; inactive = flat fitted curve, though single readings scatter. No potency is given beside an inconclusive call; the fits are too rough.

experiment: qHTS for Inhibitors of human tyrosyl-DNA phosphodiesterase 1 (TDP1): qHTS in cells in presence of CPT; conditions: chicken DT40 Tdp1-/-;hTDP1 cells + 20 nM CPT, ATP luminescence, 48 h; activity change, negative = growth inhibition: at 46.2 µM (top of the series) unless noted; note: nearly all actives have a fitted effect of over 55% in size
Outline: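 Chicken DT40 Tdp1-/- cells complemented with human TDP1, 400 cells/well, exposed to compounds plus 20 nM camptothecin for at least 48 h at 37 C; viability read as ATP content by CellTiter-Glo luminescence.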
% is set by controls: 0 for no effect and ±100 for the full control effect; potency is the fitted concentration of half-maximal effect; tags give direction and shape of the fitted curve.

SMILES | Potency | activity change, negative = growth inhibition
COc1ccc(CCNc2nc(-c3ccco3)cc(C(F)(F)F)n2)cc1OC | inconclusive [inhibitor, partial curve] | 
O=C(Nc1ncc(Cc2cccc(Cl)c2)s1)c1cccs1 | inconclusive [inhibitor, single point] | 
CC1CC2(C)CC(C)C1(COC(=O)Nc1ccccc1)CO2 (configuration not stated) |  | inactive: -12.5%
CC(C)N(Cc1nccn1C)C(=O)c1cc(COc2ccc(-n3cncn3)cc2)on1 |  | inactive: -23.7%
COc1ccc(OCC(=O)Nc2ccccc2-c2ccccc2)cc1 | inconclusive [inhibitor, single point] | 
O=C(Nc1nnc(S(=O)(=O)N2CCOCC2)s1)c1ccccc1Br | inconclusive [inhibitor, full curve, poor fit] | 
CCOC(=O)c1ccc(NC(=O)CC2C(=O)N(c3cccc(OC)c3)C(=O)N2Cc2cccnc2)cc1 (configuration not stated) | active: 13 µM | 
CC1CCN(c2nc(-c3cccnc3)nc3scc(-c4ccccc4)c23)CC1 | inconclusive [inhibitor, single point] | 
COc1ccc(NS(=O)(=O)c2ccc(C)c(C(=O)NCC(c3ccco3)N(C)C)c2)cc1 (configuration not stated) | inconclusive [inhibitor, single point] | 
Cc1ccc2c(c1)[C@H]1[C@H](CO2)[C@H](c2ccccc2)[C@]2(C)C(=O)Nc3ccc(Br)cc3C(=O)N12 | inconclusive [inhibitor, single point] | 
Cc1ccc(CN(C(=O)c2sc3ccccc3c2Cl)C2CCS(=O)(=O)C2)cc1 (configuration not stated) | inconclusive [inhibitor, partial curve] | 
CCOc1ncccc1C(=O)NCCc1ccc(Cl)cc1 | inconclusive [inhibitor, single point] | 
COc1cccc(NCc2cc(=O)oc3cc(C)c(C(C)C)cc23)c1 | inconclusive [inhibitor, single point] | 
Brc1cccc(CNn2cnnc2)c1 |  | inactive: 5.08%
Cc1cccc(CNc2ncnc3ccc(-c4cccnc4)cc23)c1 | active: 11.6 µM | 
CC[C@]1(c2ccccc2)C(=O)N(C(=O)OC)N1C(=O)OC | active: 20.6 µM | 
Cc1cccc(C)c1NC(=O)c1cccc(C(=O)Nc2c(C)cccc2C)n1 | inconclusive [inhibitor, single point] | 
CCOC(=O)N(C)c1c(CC)nc2c(OCc3ccccc3C(=O)OC)cccn12 | inconclusive [inhibitor, single point] | 
Cc1cc(NC(=S)NC(=O)c2ccccc2)ccc1-c1cc2ccccc2oc1=O | active: 3.26 µM | 
Cc1cc(C)c(S(=O)(=O)Nc2cccc(-n3cnnn3)c2)c(C)c1 | inconclusive [inhibitor, single point] | 
Cc1ccc(/C=N/NC(=O)c2nnn(-c3nonc3N)c2C(C)C)s1 |  | inactive: -12.2%
O=C(CCCC1=NS(=O)(=O)c2ccccc2N1)NCCc1ccc(Cl)cc1 |  | inactive: -11.9%
Cc1cccc(C)c1NC(=O)Cn1cc(C(=O)c2ccco2)c2ccccc21 | inconclusive [inhibitor, single point] | 
CN(C)CCCN(C(=O)c1ccc([N+](=O)[O-])o1)c1nc2cc3c(cc2s1)OCO3 | active: 18.4 µM | 

SMILES | Potency | activity change, negative = growth inhibition
O=C(Cn1ncc2c3ccccc3n(Cc3cccc(Cl)c3)c2c1=O)NCCCc1ccccc1 |  | inactive: 3.49%
Cc1ccc(S(=O)(=O)N2CCC(C(=O)Nc3ccc(C(C)C)cc3)CC2)cc1 | active: 23.1 µM | 
CN(C)c1ccc(C=Cc2nccc3ccccc23)cc1 | inconclusive [inhibitor, single point] | 
CCOC(=O)C1CCCN(CC(=O)Nc2cc(C)cc(C)c2)C1 (configuration not stated) |  | inactive: -4.88%
CCOC(=O)N1CCC(N(C(=O)Nc2cccc(OC)c2)C(C)CC)CC1 (configuration not stated) | active: 20.6 µM | 
O=C1c2ccc3c4c(ccc(c24)C(=O)N1NC(=O)C(F)(F)F)CC3 |  | inconclusive: -16.1% [inhibitor]
CCCCCC(=O)N1C[C@@H](n2cc(C3CC3)nn2)[C@H](O)C[C@@H]1c1ccc(OC)cc1 | inconclusive [inhibitor, single point] | 
CC(NC(=O)c1ccco1)C(c1cccs1)N1CCN(c2ccc(F)cc2)CC1 (configuration not stated) | active: 18.4 µM | 
COc1ccc(C(=O)COc2ncnc3cc(Cl)ccc23)cc1 |  | inactive: -17%
CN1CCN(C(=O)c2ccc(CNS(=O)(=O)c3ccc(F)c(Cl)c3)cc2)CC1 | inconclusive [inhibitor, full curve, poor fit] | 
COc1ccc(-c2ccc(C(=O)NCC3Cc4cccc(-c5nc(C)cnc5C)c4O3)o2)cc1 (configuration not stated) |  | inactive: -1.51% [at 9.04 µM]
COc1cc(NC(=O)c2[nH]cnc2C(N)=O)cc(C(=O)Nc2cccc(C(F)(F)F)c2)c1 | active: 20.6 µM | 
O=C(NC1CC2CCCC(C1)N2C(=O)Nc1ccccc1)C1CC1 (configuration not stated) |  | inactive: -3.84%
Cc1cc(O)c(C(c2ccccc2)N2CCN(c3ccccc3)CC2)c(=O)n1Cc1ccco1 (configuration not stated) | inconclusive [inhibitor, single point] | 
Cc1ccc(NC(=O)COc2ccccc2C(=O)NCc2ccccc2)cc1 | inconclusive [inhibitor, single point] | 
COc1cccc(OC)c1C(=O)NCCc1ccccc1 |  | inactive: -2.64%
O=C(Oc1cccc2cccnc12)c1ccco1 | inconclusive [inhibitor, single point] | 
CN(C)CCCCCCCCCCC(=O)/C=N/O | inconclusive [inhibitor, single point] | 
Brc1cc(Br)c[n+](CCc2ccccc2)c1 | active: 11.2 µM | 
Cc1cc(C)n(-c2ccc(C(=O)Nc3ccc(S(=O)(=O)NCc4ccco4)cc3)cc2)n1 | active: 18.4 µM | 
NCCCn1c(C(=O)c2cc(Cl)c(N)c(Cl)c2)c2ccc(C(F)(F)F)cc2[n+]1[O-] | inconclusive [inhibitor, single point] | 
S=c1nc(-c2ccc(Br)cc2)[nH]c2ccccc12 |  | inactive: -18.4%
S=C(Nc1cccc(Cl)c1)Nc1cccc2cnccc12 | active: 16.4 µM | 
CS(=O)(=O)Nc1ccc(N2CCN(c3ccc(C(F)(F)F)cn3)CC2)nc1 | inconclusive [inhibitor, partial curve] | 

SMILES | Potency | activity change, negative = growth inhibition
Nc1nonc1-n1nnc(C(=O)N/N=C/c2ccccc2)c1CSc1ccc(Cl)cc1 | inconclusive [inhibitor, single point] | 
Cc1ccc(NS(=O)(=O)c2cc(C(=O)Nc3cccc([N+](=O)[O-])c3)ccc2C)cc1 | inconclusive [inhibitor, single point] | 
Cc1sc2ncnc(Sc3ccccc3C(=O)Nc3ccc(Br)cc3)c2c1C | active: 23.1 µM | 
CCOc1ccc(-c2nn(-c3ccc(F)cc3)c3c2cnc2ccc(F)cc23)cc1 |  | inactive: 4.74%
COc1ccc(C(CCN2CCCCC2)c2c(OC)cc(OC)c3c(-c4ccccc4)cc(=O)oc23)cc1 (configuration not stated) | active: 20.6 µM | 
O=C(N[C@@H](Cc1ccccc1)C(=O)N1CCC2(CC1)NCCc1[nH]cnc12)c1cccc(F)c1 | inconclusive [inhibitor, partial curve, poor fit] | 
CC(C)(C)c1ccc(CC(=O)N2CCC2(C)C(=O)NCCC#N)cc1 (configuration not stated) | inconclusive [inhibitor, single point] | 
O=C(Nc1cccc(S(=O)(=O)NC2=NCCCCC2)c1)c1cc(-c2ccc(Cl)cc2)nc2ccccc12 | inconclusive [inhibitor, single point] | 
CCCCNC(=O)N1CCN(C(=O)C2CCCO2)CC1 (configuration not stated) |  | inactive: -8.55%
COc1ccc(N2CCN(C(=O)C3CCN(S(=O)(=O)c4cccc5nonc45)CC3)CC2)cc1 | inconclusive [inhibitor, partial curve] | 
Cc1cccc(NC(=S)NCCc2ccc(Cl)cc2)c1C | active: 18.4 µM | 
CC(C)c1cc(Cn2c3ccccc3c(=O)n2C(C)Cn2cc(C3=CCCCC3)nn2)on1 (configuration not stated) | inconclusive [inhibitor, single point] | 
Cc1ccc2[nH]c(=O)c3cc(C(=O)N(C)c4ccc(C)c(C)c4)sc3c2c1 | active: 10.3 µM | 
CCOC(=O)c1noc2ncnc(Nc3cc(Cl)c(OC)cc3OC)c12 |  | inactive: -11.9%
Cc1cc(-c2n[nH]c(=S)n2/N=C/c2cc([N+](=O)[O-])ccc2Cl)n[nH]1 | active: 5.17 µM | 
OCC[C@H]1C[C@H](O)[C@@H](O)[C@@]2(OCCCc3ccccc32)O1 |  | inactive: 8.74%
CCc1ccc(CN(C)C(=O)c2cc(COc3cccc4cnccc34)on2)cc1 | active: 9.2 µM | 
O=S(=O)(c1ccc(F)cc1)N1CN(Cc2ccco2)c2nc3ccccc3nc21 | inconclusive [inhibitor, single point] | 
CC(=O)c1cccc(NCC(=O)Nc2cccc(S(=O)(=O)N3CCCCC3)c2)c1 | inconclusive [inhibitor, single point] | 
C(=C\c1ccccc1)/CN1CCN(C(c2nnnn2Cc2ccccc2)C2CC2)CC1 (configuration not stated) | active: 16.4 µM | 
O=C(Nc1ccc(-c2nc3ccccc3o2)c(O)c1)c1ccccc1 | inconclusive [inhibitor, single point] | 
Cc1ccc(-c2nnc(Nc3ccc(C(N)=O)cc3)c3ccccc23)cc1S(N)(=O)=O |  | inactive: 9.99%
O=C(CN1C(=O)c2cccc3cccc1c23)N1CCN(c2cccc(Cl)c2)CC1 |  | inactive: -4.07%
CCN(CC)CCN1C(=O)C2C(C(=O)Nc3cccc(SC)c3)C3C=CC2(O3)C1C(=O)NC1CCCC(C)C1C (configuration not stated) | inconclusive [inhibitor, single point] | 
